Experimental data: the supplement of paper PMC12067093, “Discovery and optimisation of a covalent ligand for TRIM25 and its application to targeted protein ubiquitination” (Chemical Science, 2025)
Targets with the largest changes are over-represented here; the source holds about 21,000 in all.
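Also: competitive chemoproteomic profiling in live THP-1 cells with an iodoacetamide desthiobiotin (IA-DTB) probe, comparing probe-labelled peptide intensities in compound-treated cells against DMSO-treated controls.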

UniProt Q13111, sequence (Q13111 whole entry, looked up): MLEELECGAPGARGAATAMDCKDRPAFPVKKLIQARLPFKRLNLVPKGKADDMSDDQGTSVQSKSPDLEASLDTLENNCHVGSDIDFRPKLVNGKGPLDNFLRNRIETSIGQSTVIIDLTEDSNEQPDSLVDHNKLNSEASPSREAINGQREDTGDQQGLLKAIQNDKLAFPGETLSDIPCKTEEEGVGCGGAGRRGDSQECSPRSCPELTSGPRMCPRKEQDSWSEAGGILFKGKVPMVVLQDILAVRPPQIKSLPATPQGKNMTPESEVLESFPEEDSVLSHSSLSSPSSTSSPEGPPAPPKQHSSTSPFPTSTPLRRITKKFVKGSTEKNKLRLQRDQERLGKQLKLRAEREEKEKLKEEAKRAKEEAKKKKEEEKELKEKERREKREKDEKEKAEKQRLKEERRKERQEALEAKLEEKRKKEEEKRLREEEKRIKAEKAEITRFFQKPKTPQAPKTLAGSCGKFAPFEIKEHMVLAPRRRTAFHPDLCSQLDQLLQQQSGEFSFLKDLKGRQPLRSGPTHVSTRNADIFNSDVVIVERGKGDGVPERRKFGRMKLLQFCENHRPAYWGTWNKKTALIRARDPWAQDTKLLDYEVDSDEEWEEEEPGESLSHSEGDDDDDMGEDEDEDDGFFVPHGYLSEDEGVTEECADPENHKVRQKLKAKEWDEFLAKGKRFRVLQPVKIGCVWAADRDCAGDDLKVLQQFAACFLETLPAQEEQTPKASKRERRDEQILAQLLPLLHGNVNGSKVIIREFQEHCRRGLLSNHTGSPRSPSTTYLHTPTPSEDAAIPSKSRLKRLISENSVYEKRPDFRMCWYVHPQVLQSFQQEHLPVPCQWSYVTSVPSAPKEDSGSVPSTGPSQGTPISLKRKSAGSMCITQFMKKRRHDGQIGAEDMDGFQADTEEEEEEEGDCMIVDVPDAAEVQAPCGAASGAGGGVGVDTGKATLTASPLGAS
UniProt A5YKK6, sequence (A5YKK6 whole entry, looked up): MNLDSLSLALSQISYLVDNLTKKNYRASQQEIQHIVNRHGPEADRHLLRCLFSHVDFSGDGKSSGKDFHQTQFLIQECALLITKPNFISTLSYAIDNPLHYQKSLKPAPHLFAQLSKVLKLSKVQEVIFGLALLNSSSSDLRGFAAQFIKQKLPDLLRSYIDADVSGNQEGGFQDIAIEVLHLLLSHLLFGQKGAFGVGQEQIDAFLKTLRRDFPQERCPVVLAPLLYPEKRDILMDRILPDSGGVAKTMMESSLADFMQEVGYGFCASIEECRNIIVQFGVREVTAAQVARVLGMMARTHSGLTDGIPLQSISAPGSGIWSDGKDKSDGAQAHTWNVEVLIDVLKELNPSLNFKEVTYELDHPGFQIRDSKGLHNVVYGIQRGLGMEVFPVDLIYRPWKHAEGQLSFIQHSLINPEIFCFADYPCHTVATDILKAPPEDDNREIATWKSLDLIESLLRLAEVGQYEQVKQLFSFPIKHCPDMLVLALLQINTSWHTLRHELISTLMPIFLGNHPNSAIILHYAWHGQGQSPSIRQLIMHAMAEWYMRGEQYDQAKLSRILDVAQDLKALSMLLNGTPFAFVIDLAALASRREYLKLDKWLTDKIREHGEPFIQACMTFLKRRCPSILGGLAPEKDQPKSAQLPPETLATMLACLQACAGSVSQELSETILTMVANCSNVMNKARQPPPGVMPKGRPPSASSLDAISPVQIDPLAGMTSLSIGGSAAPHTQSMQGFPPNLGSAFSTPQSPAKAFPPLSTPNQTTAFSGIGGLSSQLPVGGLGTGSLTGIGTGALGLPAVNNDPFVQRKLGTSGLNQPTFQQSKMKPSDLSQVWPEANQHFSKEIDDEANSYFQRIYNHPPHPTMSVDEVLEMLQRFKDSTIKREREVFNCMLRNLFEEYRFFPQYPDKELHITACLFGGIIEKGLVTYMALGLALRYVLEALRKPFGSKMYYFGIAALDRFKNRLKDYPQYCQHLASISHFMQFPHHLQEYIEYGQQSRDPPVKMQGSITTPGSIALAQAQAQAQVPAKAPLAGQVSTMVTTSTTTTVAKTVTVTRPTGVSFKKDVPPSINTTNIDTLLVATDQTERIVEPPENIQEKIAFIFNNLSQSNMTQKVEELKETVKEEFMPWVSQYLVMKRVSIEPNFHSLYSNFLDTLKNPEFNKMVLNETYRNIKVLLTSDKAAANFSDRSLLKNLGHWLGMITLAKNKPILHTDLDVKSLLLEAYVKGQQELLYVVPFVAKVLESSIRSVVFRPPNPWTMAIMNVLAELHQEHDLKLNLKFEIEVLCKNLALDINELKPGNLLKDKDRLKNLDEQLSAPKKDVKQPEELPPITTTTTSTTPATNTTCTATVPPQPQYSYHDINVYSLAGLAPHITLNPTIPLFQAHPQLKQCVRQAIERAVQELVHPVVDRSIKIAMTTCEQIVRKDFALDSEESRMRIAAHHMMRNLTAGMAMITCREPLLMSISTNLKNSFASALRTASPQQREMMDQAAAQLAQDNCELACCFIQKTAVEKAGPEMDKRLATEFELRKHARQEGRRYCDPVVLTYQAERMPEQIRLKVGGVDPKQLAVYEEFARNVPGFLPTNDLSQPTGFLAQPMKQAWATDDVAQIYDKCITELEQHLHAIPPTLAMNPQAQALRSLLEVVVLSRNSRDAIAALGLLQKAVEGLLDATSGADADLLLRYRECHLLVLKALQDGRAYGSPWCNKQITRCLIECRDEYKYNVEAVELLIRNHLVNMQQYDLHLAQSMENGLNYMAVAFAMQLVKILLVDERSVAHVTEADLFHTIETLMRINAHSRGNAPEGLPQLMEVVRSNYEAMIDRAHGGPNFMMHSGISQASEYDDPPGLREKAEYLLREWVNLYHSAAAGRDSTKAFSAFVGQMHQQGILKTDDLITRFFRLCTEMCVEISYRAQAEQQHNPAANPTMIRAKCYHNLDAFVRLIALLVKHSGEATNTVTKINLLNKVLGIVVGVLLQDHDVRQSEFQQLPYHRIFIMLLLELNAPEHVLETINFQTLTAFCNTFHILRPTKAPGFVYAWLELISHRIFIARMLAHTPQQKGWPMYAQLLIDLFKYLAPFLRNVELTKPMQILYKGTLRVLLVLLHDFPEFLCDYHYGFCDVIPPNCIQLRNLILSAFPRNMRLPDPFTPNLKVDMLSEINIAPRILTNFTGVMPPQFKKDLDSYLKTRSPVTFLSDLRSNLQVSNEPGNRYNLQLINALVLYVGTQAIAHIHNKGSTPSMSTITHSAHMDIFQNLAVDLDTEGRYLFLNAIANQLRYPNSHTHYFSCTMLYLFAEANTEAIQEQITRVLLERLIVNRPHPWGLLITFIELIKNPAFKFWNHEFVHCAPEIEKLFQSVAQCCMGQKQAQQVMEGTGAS
UniProt P47756, sequence (P47756 whole entry, looked up): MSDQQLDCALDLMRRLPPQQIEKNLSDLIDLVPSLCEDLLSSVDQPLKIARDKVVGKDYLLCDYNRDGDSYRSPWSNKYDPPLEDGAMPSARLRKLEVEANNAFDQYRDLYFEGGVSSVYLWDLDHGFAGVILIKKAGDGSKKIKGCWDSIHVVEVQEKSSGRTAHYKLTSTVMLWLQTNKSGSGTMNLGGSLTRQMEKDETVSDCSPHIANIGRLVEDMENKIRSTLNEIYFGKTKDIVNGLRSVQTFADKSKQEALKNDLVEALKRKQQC
UniProt P50990, sequence (P50990 whole entry, looked up): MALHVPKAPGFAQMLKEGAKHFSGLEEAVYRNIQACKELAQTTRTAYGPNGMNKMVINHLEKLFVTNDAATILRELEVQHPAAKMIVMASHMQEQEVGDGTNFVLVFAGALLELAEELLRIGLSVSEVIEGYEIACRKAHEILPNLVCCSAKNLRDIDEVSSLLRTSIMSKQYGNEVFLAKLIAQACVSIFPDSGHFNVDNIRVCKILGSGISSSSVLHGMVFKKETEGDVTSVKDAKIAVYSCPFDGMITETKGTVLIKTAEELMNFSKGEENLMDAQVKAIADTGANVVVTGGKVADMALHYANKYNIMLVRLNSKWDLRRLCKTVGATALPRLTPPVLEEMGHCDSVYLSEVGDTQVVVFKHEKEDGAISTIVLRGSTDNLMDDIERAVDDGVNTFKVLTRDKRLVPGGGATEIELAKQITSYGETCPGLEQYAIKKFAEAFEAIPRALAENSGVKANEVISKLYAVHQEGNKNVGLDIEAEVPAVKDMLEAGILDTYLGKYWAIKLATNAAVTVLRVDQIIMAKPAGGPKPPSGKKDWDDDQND
UniProt Q8N8R5, sequence (Q8N8R5 whole entry, looked up): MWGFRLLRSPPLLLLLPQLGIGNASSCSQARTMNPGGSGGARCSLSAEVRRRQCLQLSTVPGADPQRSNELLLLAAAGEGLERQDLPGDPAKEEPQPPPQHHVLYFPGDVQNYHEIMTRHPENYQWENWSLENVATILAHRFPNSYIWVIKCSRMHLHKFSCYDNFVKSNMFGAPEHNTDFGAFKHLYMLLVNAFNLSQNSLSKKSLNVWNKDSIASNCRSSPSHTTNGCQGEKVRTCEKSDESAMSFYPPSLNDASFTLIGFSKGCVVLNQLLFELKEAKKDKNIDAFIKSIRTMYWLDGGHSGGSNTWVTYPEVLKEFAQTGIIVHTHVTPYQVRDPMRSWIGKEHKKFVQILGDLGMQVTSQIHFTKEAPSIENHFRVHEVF

What follows are targets tested with CC1Cc2ccccc2N1C(=O)C1CCCN(C1)C(=O)CCl (mixture of isomers) [TRIM25 ligand 11 (diastereomer mixture)] (assay: probe-labelled cysteine peptide fold change vs DMSO (competition) (log2 fold change); higher = less target engagement (more negative = stronger competition)). Details: 50 µM; THP-1; incubation time: 4 h.
With “CHAF1A_Q13111_7_MLEELECGAPGAR (UniProt Q13111)” the “probe-labelled cysteine peptide fold change” value was 0.0999. With “C2orf69_Q8N8R5_230_SSPSHTTNGCQGEK (UniProt Q8N8R5)” the “probe-labelled cysteine peptide fold change” value was -0.603. For “CCT8_P50990_347_LTPPVLEEMGHCDSVYLSEVGDTQVVVFK (UniProt P50990)”, the “probe-labelled cysteine peptide fold change” value was -0.0666. In the case of “CNOT1_A5YKK6_219_CPVVLAPLLYPEKR (UniProt A5YKK6)”, the “probe-labelled cysteine peptide fold change” value is reported as -0.193. With “CAPZB_P47756_62_DYLLCDYNRDGDSYR (UniProt P47756)” the “probe-labelled cysteine peptide fold change” value was -0.535. For “CCAR2_Q8N163_644_PRGEASEDLCEMALDPELLLLR (UniProt Q8N163)”, the “probe-labelled cysteine peptide fold change” value was 0.0439.
